Laboratory results: PubChem BioAssay AID588855 (National Center for Advancing Translational Sciences (NCATS), 2011)
“And” between values parts separate entries of the source, which are not always exact repeats. Equal entries are not always repeated. The campaign covered roughly 410,000 compounds. About 5,000 (1.2%) were called active. This list was built around the results that the source calls inconclusive (neither active nor inactive); the mix of calls is not that of the screen. The call rests on the fitted dose curve; in most records, active means well fitted inhibition curve with a large enough effect; inconclusive means small, poorly fitted or top-dose-only effect; inactive means no such curve, though single readings can be large or run the other way. Potencies of inconclusive entries are doubtful fits and often do not repeat.

Assay: qHTS for Inhibitors of TGF-b; further: nearly all actives have a fitted effect of over 65% in size
Conditions: HepG2 CAGA-GFP TGF-b/SMAD3 reporter, GFP fluorescence, 18 h, TGF-beta stimulated, 500 pg/mL final; series mostly up to 46.1 µM
In short: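 Per well, imaged GFP fluorescence of HEPG2 CAGA-GFP cells gives the signal; cells get compound, then TGF-beta (500 pg/mL final), 18 h at 37 degrees C; %Activity versus -TGF-beta and +DMSO controls.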
Potency means the concentration at half of the fitted maximal effect; tags describe the fitted curve by direction and shape.

SMILES	Potency
Cc1ccc(CN2C(=O)C(C)Sc3ccc(C#N)cc32)cc1 (configuration not stated)	inactive
O=S(=O)(c1ccccc1)N1CCC(Oc2ccc(-n3cnnn3)cc2)CC1	inconclusive: 25.1 µM [inhibitor, single point]
Cc1cccc(CNC(=O)Cc2csc3ccccc23)c1	inactive
Clc1nnc(N/N=C/c2ccccc2)c2ccccc12	inconclusive: 8.91 µM [inhibitor, partial curve, poor fit]
Cc1cccc(-c2n[nH]c(=S)n2/N=C/c2ccco2)c1	inactive
CCc1nc2c(OCC(=O)c3ccc(F)cc3)cccn2c1N(C)C(=O)c1ccc(OC)cc1	inactive
COc1ccc(CNC(=O)C2Cc3c(-c4ccccc4Oc4ccccc4)ccnc3O2)cc1OC (configuration not stated)	inconclusive: 0.447 µM [inhibitor, partial curve, poor fit]
Nc1ncnc2c1ncn2[C@@H]1O[C@H](C(=O)N[C@H]2c3ccccc3C[C@H]2O)[C@@H](O)[C@H]1O	inactive
CC(=O)N1[C@H](C)C=C[C@]1(Cc1ccccc1)C(=O)NCc1cc(F)cc(C(F)(F)F)c1	inconclusive: 8.91 µM [inhibitor, partial curve, poor fit]
CON(C)C(=O)CC(CN(Cc1ccccc1)C(=O)OC(C)(C)C)c1ccc(Cl)cc1 (configuration not stated)	inconclusive: 15.8 µM [inhibitor, partial curve, poor fit]
COC(=O)C1=C(C(=O)OC)SC(=C2C(=S)C(C)(C)N(C(=O)C3CC3)c3ccccc32)S1	inconclusive: 35.5 µM [inhibitor, single point]
CC(C)C[C@@]12C(=O)N(c3cccc(Br)c3)C(=O)N1[C@H](c1ccc(F)cc1)[C@@H]1C(=O)N(C3CCCCC3)C(=O)[C@@H]12	inactive
CCCCCCCN1C(Nc2ccccc2)=NC[C@@H]1Cc1ccccc1	inconclusive: 35.5 µM [inhibitor, partial curve, poor fit]
COc1ccc(C)c2sc(N(CCN(C)C)C(=O)/C=C/c3cccs3)nc12	inconclusive: 35.5 µM [inhibitor, single point]
COC(=O)C1=C(C)N(CC2CC2)C(=NCc2cccc(Cl)c2)N[C@H]1c1ccccc1	inconclusive: 15.8 µM [inhibitor, single point]
COc1cccc(C(=O)NN2CC(O)=C(c3nc(C)cs3)C2=N)c1	inconclusive: 2.51 µM [inhibitor, full curve, poor fit]
O=C(NCc1cccc(C(F)(F)F)c1)c1cccc(S(=O)(=O)N2CCN(Cc3ccccc3)CC2)c1	inconclusive: 12.6 µM [inhibitor, single point]
O=C(CN1CCN(c2ncccn2)CC1)N1CCCc2c1c(=O)oc1ccc(O)cc21	inconclusive: 35.5 µM [inhibitor, single point]
CCOC(=O)c1cnc2ccccc2c1NCc1ccco1	inconclusive: 15.8 µM [inhibitor, single point]
Cc1ccc(/C=N/NC(=O)c2nnn(-c3nonc3N)c2-c2ccccc2)o1	inactive
CCC1CCCCN1C(=S)Nc1ccc(SC(F)F)cc1 (configuration not stated)	inconclusive: 15.8 µM [inhibitor, single point]
CCc1c(C#N)c(SCCC(=O)Nc2ccc(F)cc2)nc2c1C(=O)CC(C)(C)C2	inconclusive: 35.5 µM [inhibitor, single point]
Oc1ccc(CN2CCN(Cc3ccccc3)CC2)c2cccnc12	inconclusive: 1.58 µM [inhibitor, partial curve, poor fit]

SMILES	Potency
Cc1ccc(NC(=O)Cn2c(=O)n(-c3ccc(C)cc3)c(=O)c3ccc(C(=O)NCc4ccccc4Cl)cc32)cc1	inconclusive: 3.16 µM [inhibitor, partial curve, poor fit]
Cc1ccc(S(=O)(=O)c2nc(-c3ccco3)oc2SC(C)C)cc1	inconclusive: 35.5 µM [inhibitor, single point]
C=CCOC(=O)/C(=C/c1ccco1)NC(=O)/C=C/c1ccccc1	inconclusive: 3.98 µM [inhibitor, partial curve]
Cc1cnc(C)c(Nc2nc(C(N)CCc3ccccc3)cs2)n1 (configuration not stated)	inconclusive: 35.5 µM [inhibitor, single point]
CCCN1CCC(=O)N(C(CSc2ccc(OC)cc2)c2ccccc2)CC1 (configuration not stated)	inconclusive: 11.2 µM [inhibitor, partial curve, poor fit]
CCOC(=O)c1ccc(Nc2ncnc3c2cnn3C)cc1	inactive
O=C(Nc1ncccc1Cl)C1COc2ccccc2O1 (configuration not stated)	inactive
O=C(O)/C=C/C(=O)Nc1cccc2cccnc12	inconclusive: 12.6 µM [inhibitor, partial curve, poor fit]
Cc1ccc2[nH]c(O)c(N=NC(=O)c3ccc(NS(=O)(=O)c4cccs4)cc3)c2c1	inconclusive: 35.5 µM [inhibitor, single point]
COc1ccccc1N1CCN(C(=O)c2cc(=O)c3c(C)cc(C)cc3o2)CC1	inactive
O=S1(=O)CCC(NC(=S)N2CCCCCC2)C1 (configuration not stated)	inconclusive: 31.6 µM [inhibitor, single point]
CCOc1ccc(NC(=O)OCCN2CCN(CCc3ccccc3)C(C)C2)cc1 (configuration not stated)	inactive
COc1ccc(COC(=O)C2=C(C)NC(=O)NC2c2ccc(OC)cc2)cc1 (configuration not stated)	inconclusive: 35.5 µM [inhibitor, single point]
Cn1c2ccccc2c(=O)c2ccc(C#Cc3ccc(N)cc3)cc21	inconclusive: 5.62 µM [inhibitor, single point]
NC(=S)N/N=C/c1ccccc1OCc1cccc(Cl)c1	inconclusive: 12.6 µM [inhibitor, single point]
Cc1ccc2c(c1)Sc1c(ccc3ccccc13)N2	inconclusive: 3.98 µM [inhibitor, full curve, poor fit]
CCN(CC)CCNC(=O)C1CCN(S(=O)(=O)c2c(C)noc2/C=C/c2ccccc2F)CC1	inconclusive: 22.4 µM [inhibitor, single point] and inconclusive: 25.1 µM [inhibitor, single point]
CCN(CC)c1ccc2cc(-c3nnc(-c4ccncc4)o3)c(=O)oc2c1	inactive
Cc1nc2ccc(NS(=O)(=O)c3ccc(F)c(C)c3)cc2[nH]1	inactive
O=C(COC(=O)c1ccco1)Nc1ccc(Cl)cn1	inconclusive: 0.251 µM [inhibitor, full curve]
COc1ccc(-c2oc(NC(=O)CSc3ncn[nH]3)c(C#N)c2-c2ccc(OC)cc2)cc1	inconclusive: 35.5 µM [inhibitor, partial curve, poor fit]
COC1=C(Br)C(=O)c2ncccc2C1=O	inconclusive: 35.5 µM [inhibitor, single point]
CNc1nc(Oc2cccc(F)c2)c2sccc2n1	inactive

SMILES	Potency
NS(=O)(=O)c1ccc(NC(=O)CSc2nnc3n2CCCCC3)cc1	inactive
Cc1ccc(-n2ncc3c(NCCc4ccccc4)ncnc32)cc1C	inconclusive: 35.5 µM [inhibitor, single point]
CN1OC[C@@H]2CN(C(=S)NCCc3ccccc3)[C@H](c3ccc(-n4ccnc4)cc3)C[C@@H]21	inconclusive: 35.5 µM [inhibitor, single point]
CC(=O)Nc1ccnn1C1CCN(C(=O)c2cccc(C)c2C)CC1	inactive
COc1ccc(-c2nc(-c3ccc(NC(=O)c4ccc(Br)o4)cc3)no2)cc1OC	inconclusive: 12.6 µM [inhibitor, partial curve, poor fit]
O=C(Nc1cccnc1)c1ccc(COc2ccccc2Br)cc1	inconclusive: 35.5 µM [inhibitor, single point]
Cc1cccc(N(CC(=O)NCCC2=CCCCC2)S(C)(=O)=O)c1C	inactive
Cc1ccc(C(=O)Sc2cccccc2=O)cc1	active: 0.891 µM
Cc1ccc(-n2nc(C(=O)O)c(C)c(C#N)c2=O)cc1Cl	inactive
CCOC(=O)/C=C/C(=O)Nc1ccc(S(=O)(=O)N(C)c2ccccc2)cc1	inconclusive: 35.5 µM [inhibitor, single point]
CCC(C)(C)NC(=O)C(c1ccc(C)cc1)N(Cc1cccs1)C(=O)c1ccc2c(c1)OCCO2 (configuration not stated)	inconclusive: 22.4 µM [inhibitor, single point]
CCOc1ccc(N=Nc2c(C)noc2C)cc1	inactive
Cc1ccc(C)n1-c1ccncc1	inconclusive: 8.91 µM [inhibitor, partial curve, poor fit]
O=C(NCc1ccccn1)c1c(-c2ccccc2)sc2ccccc12	inactive
CCS(=O)(=O)c1ccc(C(=O)Nc2cccc(Cl)c2)c(Cl)c1Cl	inconclusive: 2.51 µM [inhibitor, full curve, poor fit]
O=C(Nn1cnc2ccccc2c1=O)c1ccccc1[N+](=O)[O-]	inconclusive: 1.58 µM [inhibitor, partial curve, poor fit]
COc1ccc(-c2cc3nc(-c4ccccc4)cc(N4CCCC(O)C4)n3n2)cc1 (configuration not stated)	inactive
O=C(c1ccc(=O)oc1)N1CCCc2ccccc21	inactive
Cc1cc(NC(=O)CS(=O)(=O)c2cn(Cc3ccccc3Cl)c3ccccc23)no1	inconclusive: 12.6 µM [inhibitor, partial curve, poor fit]
Cc1cc(C)cc(-n2c(SCC(=O)Nc3nnc(C)s3)nc3c([nH]c4ccccc43)c2=O)c1	inactive
COc1cc(-c2nnc(SCC(=O)/C(C#N)=C(\C)N)o2)cc(OC)c1OC	inconclusive: 35.5 µM [inhibitor, single point]
